Assay results published in PubChem BioAssay (NCI).
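Protocol summary: plate cells (96-well), add compound at 5 concentrations, incubate 48 h, interpolate endpoints linearly. GI50 is the concentration that inhibits growth by half. Definition used: TGI = concentration required for complete inhibition of growth.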 Active and inactive are the calls of the source. No stated cut-off is given here; in the data, active means GI50 below about 0.43 µM; inactive means the rest.

Tested on: NCI-H322M lung
Experiment: NCI-60 cell line screen, 48 h

Compound	TGI [µM]	GI50 [µM]	outcome
FC(F)(F)c1cccc2ns[s+]c12	> 100		
CCNC(=S)NNC(=O)c1csc(NC(=S)NC2CCCCC2)n1	47.5		
COC1=C(OC)C23CCc4ccc(OC)c(O)c4C2(CCN3)CC1=O (stereo not drawn)	> 100		
COC(=O)C(C/C=C(\C)c1ccccc1)C(C)=O (stereo not drawn)	> 100		
O=S(=O)(c1ccccc1)C1CN2OC1(S(=O)(=O)c1ccccc1)CC21CCCCC1 (stereo not drawn)	> 100		
COc1cc(OC)cc(C2C(C#N)=C(N)Oc3c2ccc2ccc(O)cc32)c1 (stereo not drawn)	13.3	< 0.01	
Cc1oc2c(c1C)S(=O)(=O)C(C#N)=CN2	> 100		
CC(C)(C)N/N=C(\C(=O)Nc1ccc([N+](=O)[O-])cc1[N+](=O)[O-])c1nc2ccc([N+](=O)[O-])cc2[nH]c1=O	> 100		
CC[C@]1(Cc2ccc(OC)c(OC)c2)[C@@H]2C[C@@H](C(=O)OC)ON2O[C@H](OC2CCCC2(c2ccccc2)c2ccccc2)[C@@H]1OC(C)=O (stereo partly drawn)	> 100		
COC(=O)C1=C(c2cc(OC)c(OC)c(OC)c2)OC(c2ccc3c(c2)OCO3)C1 (stereo not drawn)	> 100		
Nc1ncnc2nc(N3CCN(CCO)CC3)[nH]c12	> 100		
CCC(CN(C)C)C(=O)c1ccco1 (stereo not drawn)	> 100		
CN1C(=O)N(C)C(N2CCCC2)c2c1nc1ccccn1c2=O (stereo not drawn)	> 100		
Cc1ccc(Nc2nc(C)c(C(=O)CC(=O)C(=O)Nc3c(C)cccc3C(C)(C)C)s2)cc1	> 100		
Cc1nc2ccccc2c(=O)n1NC(=S)Nc1ccccc1	> 100		
CC(C)(C)C(=O)CC1(O)C=C(O)C(O)(CC(=O)C(C)(C)C)O1 (stereo not drawn)	> 100		
O=C(NC1C2CC3CC(C2)CC1C3)c1ccncn1 (stereo not drawn)	> 100		
N.N.NCCCCCCN.O=C([O-])CCl.O=C([O-])CCl.O=C([O-])CCl.O=C([O-])CCl.[Pt+4].[Pt+4]	> 50	> 50	
COc1cnc2c(c1)C(=O)c1c-2n(CCCBr)c(=O)c2cc([N+](=O)[O-])ccc12	5.13	0.358	
CN(C)CCCNC(=O)N/N=C\c1cccc2ccccc12	> 10		
Nc1ccn(C2OC(COP(=O)(O)OCC3OC(n4cc(F)c(=O)[nH]c4=O)CC3O)C(O)C2O)c(=O)n1 (stereo not drawn)	> 100		
Cc1cc(C)nc(NS(=O)(=O)c2ccc(NC(=O)c3ccc(Cl)c4c(Nc5ccc(S(=O)(=O)Nc6cc(C)on6)cc5)c5ccccc5nc34)cc2)n1	30.6		
CC(=O)/C=C\C1CC2C=CC1C2 (stereo not drawn)	> 100		
COc1ccc(C(O)c2cc3c(N)c(C(=O)Nc4cccc(OC)c4)sc3nc2C)cc1 (stereo not drawn)	> 50	> 50	
Cc1nc2ccccc2c(/C=C/c2ccc(Cl)cc2)c1C(=O)/C=C/c1ccc(F)cc1	2.82	1.47	

Compound	TGI [µM]	GI50 [µM]	outcome
COCOc1cc(OC)ccc1C/C=N/O	> 100		
CO/C(N)=C(\C#N)N=Cc1cccnc1	> 100		
CCc1c(C)[nH]c2c1/C(=N/N=C1\CCCc3[nH]c(C)c(CC)c31)CCC2	> 100		
c1cc2sc1CSCCSCCSC2	> 100		
O=c1c2ccccc2n2c(=S)[nH]nc2n1-c1ccccc1	> 100		
COc1ccc(NC(=S)N/N=C/c2c(C)n(C)n(-c3ccccc3)c2=O)cc1	> 100		
NN/C(=N\S(=O)(=O)c1ccc(-c2ccccn2)s1)Nc1ccc(Cl)cc1	> 100		
CC1(C)CC(=O)c2c(nc3c(ccc4ccccc43)c2-c2ccc(NC(=O)CCCC(=O)Nc3ccc(-c4c5c(nc6c4ccc4ccccc46)CC(C)(C)CC5=O)cc3)cc2)C1	> 100		
O=C1C(c2ccccc2)=[N+]([O-])c2cc([N+](=O)[O-])c(/C(Cl)=C/c3ccccc3)cc21	> 100		
O=C(O)COc1cc(-c2ccccc2)nc2ccc(F)cc12	> 100		
COc1cc2c(cc1OCCCCCN1CCN(c3cc(=O)oc4ccccc34)CC1)N=C[C@@H]1CCCN1C2=O	1.94	0.625	
O=C(O)CC1OCC=C2C[N+]3([O-])CCC45c6ccccc6NC4C1C2CC53 (stereo not drawn)	> 100		
CCC[CH2][Sn]([CH2]CCC)([O]C(=O)c1ccc(C)c(N)c1)[O]C(=O)c1ccc(C)c(N)c1	2.89	1.55	
COC(=O)C(=O)C(C(=O)OC)C(=O)C(=O)Nc1ccccc1C(N)=O (stereo not drawn)	> 100		
COC(=O)[C@]12CC[C@H]3CN(C(=O)OCc4ccccc4)[C@H]([C@H]31)[C@H](C(=O)OCC[Si](C)(C)C)N2S(=O)(=O)c1ccc(C)cc1	> 100		
C=CCOC(C)n1c(C)c(Br)c(=O)[nH]c1=O (stereo not drawn)	> 100		
Clc1ccc2oc(CCC3CCCCC3)nc2c1	> 100		
[N-]=[N+]=NCCCn1c2c(c3ccccc3c1=O)C(=O)c1cc(Br)ccc1-2	> 100	> 100	
O=c1cc(-c2ccc(O)c(O)c2-c2c(O)cc(O)c3c(=O)cc(-c4ccc(O)c(O)c4-c4c(O)cc(O)c5c(=O)cc(-c6ccc(O)c(O)c6)oc45)oc23)oc2cc(O)cc(O)c12			inactive
CCOC(=O)/C=C(/OCC)[C@@H]1C(C(=O)c2ccc(Cl)cc2)[C@H]1/C(=C\C(=O)OCC)OCC (stereo partly drawn)	> 100		
O=C(O)c1sccc1O	> 100	47.8	
O=[N+]([O-])c1cccc(-c2ncnc(-c3cccc([N+](=O)[O-])c3)n2)c1	> 100		
Cc1ccc(S(=O)(=O)NCCN(CCNS(=O)(=O)c2ccc(C)cc2)S(=O)(=O)c2ccc(C)cc2)cc1	> 100		
CCOCCOc1ccc(OCCOCC)cc1	> 100		
